Results taken from patent publication US20110020329A1, “CONJUGATES OF ANTI-RG-1 ANTIBODIES” (Bristol-Myers Squibb Company, priority 2007, published 2011).

B1: anti-RG-1: naked human monoclonal anti-RG-1 antibody (19G9; VH SEQ ID NO: 13, VL SEQ ID NO: 15) (antibody, listed as Homo sapiens, V domains shown)
VH: EVQLVQSGGGLVHPGGSLRLSCAGSGFTFSSYVMHWLRQAPGKGLEWVSVIGTGGVTHYADSVKGRFTISRDNAKNSLYLQMNSLRAEDMAMYYCARWGYYGSGSYENDAFDIWGQGTMVTVSS
VL: [… about 100 residues …]
B2: anti-RG-1-Toxin: anti-RG-1 antibody 19G9 conjugated to the molecule of formula (m), formula (A), substitution ratio 1-1.5 (conjugate)
VH: B1 VH
VL: [… about 100 residues …]

What was measured:
[1] = system: LNCaP/prostate stroma cell xenograft; experiment: Efficacy against LNCaP/prostate stroma coculture tumors in SCID mice; type: in vivo, CB17.SCID mice; conditions: LNCaP/stroma model, high RG-1 in stroma; IP single dose Day 0; antibody 30 mg/kg, conjugate 0.03, 0.1, 0.3 μmole/kg cytotoxin; to Day 62
LNCaP xenograft = experiment: Efficacy against LNCaP tumors in SCID mice; type: in vivo, CB17.SCID mice; conditions: LNCaP model, low RG-1 in stroma; IP single dose Day 0; antibody 30 mg/kg, conjugate 0.03, 0.1, 0.3 μmole/kg cytotoxin; to Day 55

Molecule	effect on tumor growth (median increase in tumor volume) [1]	effect on tumor growth (mean increase in tumor volume) (LNCaP xenograft)
B1	no inhibitory effect on tumor growth	no inhibitory effect on tumor growth
B2		similar, but unexpected, anti-tumor activity was observed
